# Measurements published in PubChem BioAssay AID488969 (Vanderbilt High Throughput Screening Facility, 2010).
# The full ranking holds about 110,000 compounds; the median of “z-score” is about -0.1, and the highest 2% start at about 2. The list shows a part of the results. Calls of active or inactive are those of the source.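 Rule for the calls: active = z-score in the third read window above 3 or below -3; inactive = the rest.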
# Target: Metabotropic glutamate receptor 8 (Rattus norvegicus) (UniProt P70579)
# Assay: rat mGluR8 modulators via GIRK flux, primary screen, cell-based, thallium flux, HTS (AID 488969)
# Conditions: HEK293 rat mGluR8, GIRK (G protein-gated inwardly rectifying potassium channel) thallium flux, FluoZin2; at 10 µM; stronger effect = higher value; submaximal glutamate (EC20) added with thallium
# UniProt P70579, sequence (P70579 whole entry, looked up): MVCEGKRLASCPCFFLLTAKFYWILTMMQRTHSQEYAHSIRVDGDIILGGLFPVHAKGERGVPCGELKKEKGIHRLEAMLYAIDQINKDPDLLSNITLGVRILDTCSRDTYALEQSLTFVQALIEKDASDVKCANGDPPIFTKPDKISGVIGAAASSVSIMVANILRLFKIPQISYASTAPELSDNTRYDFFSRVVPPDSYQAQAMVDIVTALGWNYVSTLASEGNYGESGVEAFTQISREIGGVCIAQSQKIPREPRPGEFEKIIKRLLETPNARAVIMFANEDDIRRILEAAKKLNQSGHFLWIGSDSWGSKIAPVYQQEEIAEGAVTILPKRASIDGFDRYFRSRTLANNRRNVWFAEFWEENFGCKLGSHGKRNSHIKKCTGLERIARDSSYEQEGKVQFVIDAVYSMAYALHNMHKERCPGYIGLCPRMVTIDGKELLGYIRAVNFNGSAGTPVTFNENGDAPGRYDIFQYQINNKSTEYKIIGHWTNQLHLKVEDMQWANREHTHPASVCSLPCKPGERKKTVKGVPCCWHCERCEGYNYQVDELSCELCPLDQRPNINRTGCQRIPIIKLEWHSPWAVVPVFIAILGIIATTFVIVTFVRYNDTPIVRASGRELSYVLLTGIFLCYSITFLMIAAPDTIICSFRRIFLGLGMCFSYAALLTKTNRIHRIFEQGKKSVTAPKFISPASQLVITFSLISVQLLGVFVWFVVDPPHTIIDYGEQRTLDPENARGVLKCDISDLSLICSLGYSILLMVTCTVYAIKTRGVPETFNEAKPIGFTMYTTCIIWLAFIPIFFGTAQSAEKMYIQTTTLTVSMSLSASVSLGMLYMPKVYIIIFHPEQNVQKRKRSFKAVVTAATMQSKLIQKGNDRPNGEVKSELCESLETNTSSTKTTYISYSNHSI
row,SMILES,z-score
1,O=C(NC(=S)N1CCN(Cc2ccc3c(c2)OCO3)CC1)c1cccc(Br)c1,active: 9.35
2,O=[N+]([O-])c1cccc(/C(=N/N=C/c2ccccc2Br)C23CN4CN(CN(C4)C2)C3)c1,-0.273
3,CC(C)c1ccc(-c2nn(-c3ccccc3)cc2C2C(C#N)=C(N)OC3=C2C(=O)CC(C)(C)C3)cc1 (stereo not given),0.0702
4,COc1cc(CN2CCN(c3cccc(Cl)c3)CC2)cc(OC)c1OC,-0.348
5,COCCn1cc(C(=O)c2ccccc2OCC(=O)Nc2cc(C)on2)cc(C#N)c1=O,-0.208
6,O=C(CCCCCNc1nc(=S)[nH]c2ccccc12)N1CCN(c2ccccn2)CC1,-0.132
7,Cc1oc(-c2ccc(Cl)cc2)nc1CN1CCC(C(=O)NCCCN2CCOCC2)CC1,-0.804
8,Cc1cc(C)nc(SCCN2CCOCC2)n1,0.716
9,Clc1cc(Cl)c(OCc2nc(-c3ccccn3)no2)cc1Cl,0.246
10,CN(CCCCCNC(=O)/C=N/O)Cc1ccccc1,-0.328
11,C=CCc1ccccc1OCC(O)CN(CC)CC (stereo not given),0.0462
12,O=C(O)CCC(=O)Nc1ccccc1C(=O)NCc1ccco1,0.0547
13,Cc1c(C(=O)NCCCN2CCOCC2)oc2c1C1(CCC2)SCCS1,-0.375
14,CCSc1nc(N2CCOCC2)c2c(c1C#N)CC(C)(C)N(C)C2,-0.398
15,CCCCCCS(=O)[C@H]1CS(=O)(=O)C[C@@H]1S(=O)CCCCCC (stereo not given in full),-0.0413
16,CCc1ccc(OCC(=O)NC(=S)Nc2ccc(C(C)=O)cc2)c(Br)c1,-0.0252
17,C=CCN(C(=O)COc1ccccc1)c1nnc(-c2ccncc2)s1,-0.0954
18,Cc1ccc(-c2nn3c(=O)c(C)nnc3s2)cc1,0.605
19,Cc1cc(C(=O)COC(=O)c2ccc(N)c([N+](=O)[O-])c2)c(C)n1-c1ccc2c(c1)OCO2,0.133
20,Cc1ccccc1NC(=S)NC(C)CCc1ccccc1 (stereo not given),0.22
21,S=c1[nH]nc(COc2ccc3ccccc3c2)o1,0.0777
22,COc1ccc(C)cc1S(=O)(=O)N(C)CC(=O)N1CCC(C)CC1,-0.0521
23,CC1(C)CC(=O)c2cc(OCC(=O)NCCN3CCOCC3)ccc2O1,-0.0825
24,COc1cc(NC(=O)c2cccnc2Sc2ccc(C)c(C)c2)cc(OC)c1OC,0.304

row,SMILES,z-score
1,COc1ccccc1NS(=O)(=O)c1cc(NC(=O)c2cccs2)ccc1N1CCCC1,-0.337
2,C=CCn1c(SCc2csc(-c3ccc(C)cc3)n2)nnc1-c1ccccc1OC,-0.529
3,CC(=O)c1cccc(NC(=O)C2CCCN(S(=O)(=O)c3ccc(F)cc3)C2)c1 (stereo not given),-1.57
4,CCOC(=O)/C=C1\SCC(=O)N1CC(=O)Nc1ccc(C(C)C)cc1,-0.00276
5,CS(=O)(=O)N(Cc1ccc(C(=O)NCCSCc2ccco2)cc1)c1ccccc1,-0.0864
6,COc1cc(OC)c(C(=O)CCC(=O)O)cc1OC,-0.176
7,O=S(=O)(c1ccc2ccccc2c1)N1C=CC(C(F)(F)F)=NCC1,-0.382
8,COc1ccc(OC)c(C2C(C(C)=O)=C(O)C(=O)N2Cc2cccnc2)c1 (stereo not given),0.268
9,COc1cc(OC)c(NC(=O)CS(=O)(=O)Cc2nc(-c3ccc(C)cc3)oc2C)cc1Cl,-0.345
10,Cc1cc(OC(=O)c2ccc(S(=O)(=O)N(C)C)cc2)cc(=O)o1,-0.362
11,CCCCn1c(SCC(=O)c2ccc(OC)cc2OC)nc2cc(S(N)(=O)=O)ccc21,0.146
12,COc1ccccc1Nc1nc2ccc(C)cc2cc1C#N,-0.577
13,O=[n+]1c2c(n([O-])c3c1CCCC3)CCCC2,-0.137
14,CSc1nc(N)nc(SCC(=O)OC(C)C)c1C#N,-0.323
15,CC(=O)NC(CC(=O)c1ccc([N+](=O)[O-])cc1)C(Cl)(Cl)Cl (stereo not given),0.00261
16,Cc1ccc(NC(=O)CCCCCN2C(=O)c3ccccc3C2=O)nc1,-0.213
17,O=C(Nc1ccccc1C(=O)NCC1CCCO1)c1ccccc1 (stereo not given),-0.185
18,O=C(Cn1c(CN2CCCCC2)nc2ccccc2c1=O)NCc1ccco1,0.995
19,CC1OC2(OC1C)C(=O)Nc1ccccc12 (stereo not given),0.774
20,CN1CCN(C(=O)CN(c2cccc(Cl)c2)S(=O)(=O)c2ccccc2)CC1,-0.681
21,Cc1c(C(=O)N2CCCC2)sc(NC(=O)c2ccccc2)c1C#N,-1.61
22,Cc1cc(Cl)ccc1N(CC(=O)N=Nc1c(O)[nH]c2ccccc12)S(C)(=O)=O,0.226
23,Nc1ccc(-c2cnc(-c3ccc(N)cc3)nc2)cc1,0.25
24,CCOC(=O)N1CCN(c2ccc3nnnn3n2)CC1,1.97

row,SMILES,z-score
1,Nc1nc(-c2ccc(Cl)cc2)nn1C(=O)c1cccnc1,0.0443
2,O=C(N/N=C/c1ccncc1)c1ccccc1OCc1ccc(Br)cc1,-0.736
3,CNc1ccccc1C(C)(C)c1cc(-c2ccc(F)cc2)no1,-0.295
4,Nc1ccc(S(=O)(=O)c2cccc(N)c2)cc1,-0.219
5,Cc1ccccc1C(=O)N1CCN(c2nc(N3CCOCC3)nc(N3CCOCC3)n2)CC1,0.365
6,CCSc1ncnc2sc3c(c12)CCC3,-0.0891
7,N#Cc1ccsc1NC(=O)CN1CCN(S(=O)(=O)c2ccccc2C(F)(F)F)CC1,-0.938
8,CCOCCCNC(=O)CSc1ccccc1,0.204
9,CCCNC(=O)CSc1nnc(C)s1,0.0495
10,COC(=O)c1ccc(C(=O)OC)c(NC(=O)CN2CCN(c3ccccc3OC)CC2)c1,-0.601
11,CCOC(=O)Cn1c(Br)nc2c1c(=O)[nH]c(=O)n2C,-0.0622
12,CC(=O)Nc1ccc(OCC(O)Cn2nc(C)c(C(C)=O)c2C)cc1 (stereo not given),0.566
13,C=CCc1cc(OC)ccc1OCCOCCC(C(=O)OCC)C(=O)OCC,-0.251
14,C=CCn1c(SCc2nc3ccccc3[nH]2)nnc1-c1ccc(OC)cc1,-0.057
15,Cc1ccc(-c2nc(NC(=O)c3nn(C)cc3[N+](=O)[O-])sc2C)cc1C,0.0802
16,CCOC(=O)c1ccc(NC(=O)C(C)NS(=O)(=O)c2ccc(OC)cc2)cc1 (stereo not given),-0.663
17,Cn1cc([N+](=O)[O-])c(C(=O)N(Cc2ccccc2)Cc2ccccc2)n1,-1.5
18,CC(NC(=O)COc1ccccc1-c1ccccc1)c1ccccc1 (stereo not given),-0.192
19,Cc1ccc(NC(=O)CSc2nn(-c3ccc(Cl)cc3)c(=S)s2)cc1S(=O)(=O)N(C)C,0.338
20,COc1ccc(OC)c(S(=O)(=O)NCc2cccnc2)c1,0.187
21,O=C(NC(=S)Nc1ccc(S(=O)(=O)Nc2nccs2)cc1)c1cccc(F)c1,-0.159
22,CCOc1ccccc1C1CC(=O)NC(SCC)=C1C#N (stereo not given),-1.6
